About 400 (5.1%) of roughly 7,900 compounds showed an effect of 50% or more. The list shows a part of the results.
target: Parkinson's disease protein 7 (PARK7/DJ1) (human, UniProt Q99497); assay: primary screen, percent inhibition; read as competition with a fluorescent probe by fluorescence polarization; higher = more effect of the substance; conditions: 100 µM
How it was run: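 Fluorescence-polarization probe displacement (JYQ-107, 20 nM final, 2 h) after 2 h preincubation of PARK7 (0.2 μM final) with each fragment at 100 μM final. Read-out ex/em 480/520 nm; remaining activity derived from FP signal loss relative to reference controls.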

Parkinson's disease protein 7 (PARK7/DJ1), sequence (Q99497 whole entry, looked up, the tested form may be a part): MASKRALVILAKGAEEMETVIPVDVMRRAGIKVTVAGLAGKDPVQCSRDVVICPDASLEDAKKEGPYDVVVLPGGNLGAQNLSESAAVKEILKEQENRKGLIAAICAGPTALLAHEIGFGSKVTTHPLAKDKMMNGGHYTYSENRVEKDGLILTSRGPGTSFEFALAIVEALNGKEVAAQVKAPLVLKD

Compared with `CCC(C#N)NS(=O)(=O)c1ccc(S(=O)(=O)F)cc1` (stereo not shown), `CC(C#N)NS(=O)(=O)c1cccc(S(=O)(=O)F)c1` (stereo not shown) is higher in Inhibition %: 31.6% for the first, 102% for the second.

Compared with `Cc1cc(C(=O)Cn2cnc(C#N)n2)c(C)[nH]1`, `N#Cc1ncn(CC(=O)c2ccc(F)c(F)c2)n1` is lower in Inhibition %: 7.96% for the first, 5.82% for the second.

Compared with `O=S(=O)(C=Cc1ccccc1)Nc1c(F)cccc1F`, `CN(Cc1ncnn1C)S(=O)(=O)C=Cc1ccccc1` is lower in Inhibition %: 11.7% for the first, 3.12% for the second.

Going from `Cc1occc(=O)c1OS(=O)(=O)c1ccc(Cl)cc1` to `CS(=O)(=O)C(C#N)=Cc1ccc(-c2ccc(Cl)cc2)o1`, the Inhibition % rises from -4.32% to 4.14%.

Going from `CCn1c2ccccc2c2cc(NC(=O)CCl)ccc21` to `CN1C(=O)c2ccc(NC(=O)CCl)cc2C1=O`, the Inhibition % rises from 3.25% to 40.5%.

First: OB(O)C1CCN(Cc2cc3c(cn2)OCCO3)C1 (stereo not shown)
Second: Cn1nccc1[C@@H]1OCC[C@H]1CN1CC=C(B(O)O)CC1
The Inhibition % of the first is lower: 21.4% for the first, 44.8% for the second.

`N#CC(=Cc1ccccc1)C(=O)NC1CC1` and `CNC(=O)C(C#N)=Cc1ccc(N2CCOCC2)cc1` are the same in Inhibition %: 4.34% for the first, 4.34% for the second.

Compared with `CC(=O)Nc1ccc(C(=O)CCl)cc1`, `CC(=O)Nc1cccc(NC(=O)CCl)c1` is lower in Inhibition %: 82.5% for the first, 19.2% for the second.

First: C=CC(=O)N1Cc2cc(F)c(F)cc2C1
Second: C=CC(=O)N1CCOc2ccc(C)cc2C1
The Inhibition % of the first is lower: 2.84% for the first, 4.58% for the second.

First: CNC(=O)Oc1cccc(N)c1
Second: CNC(=O)C(C#N)=Cc1cccc(-c2ccncc2)c1
The Inhibition % of the first is higher: 20.5% for the first, 9.17% for the second.

Going from `Cc1nn(-c2ccccc2)c(O)c1C(=O)CCl` to `C=CC(=O)NCc1nn(-c2ccccc2)c2c1CCC2`, the Inhibition % falls from 64.4% to 5.96%.

Compared with `Fc1cccc(CN2CCCC(C3OCCO3)C2)c1` (stereo not shown), `O=C(CC1OCCCO1)N1CCCC1c1cccc(Cl)c1` (stereo not shown) is lower in Inhibition %: 8.13% for the first, 5.91% for the second.

Going from `C=CC(=O)Nc1c(C)noc1C(C)C` to `C=CC(=O)Nc1c(C)nn(C(C)C)c1C`, the Inhibition % falls from 5.79% to 0.88%.

Compared with `Cc1c(B2OC(C)(C)C(C)(C)O2)ccc2c1CCO2`, `CC1(C)OB(c2cccc3c2OCO3)OC1(C)C` is lower in Inhibition %: -1.11% for the first, -1.61% for the second.

Going from `COC1CCN(c2nc(C#N)ccc2C)CC1` to `Cl.Cl.N#Cc1ccc(N2CCNCC2)cn1`, the Inhibition % falls from 71.3% to 5.75%.

Going from `N#Cc1ncccc1N1CCC(N2CCNC2=O)CC1` to `N#Cc1nccnc1SC1CCCC1`, the Inhibition % falls from 9.41% to 6.92%.

Compared with `N#Cc1ncn(CC(=O)Nc2ccc(Cl)c(Cl)c2)n1`, `CSc1ccccc1NC(=O)CCn1cnc(C#N)n1` is higher in Inhibition %: -4.41% for the first, 6.66% for the second.

Compared with `Cc1ccc(SCCNC(=O)CCl)cc1`, `COc1ccc(C)cc1NC(=O)CCl` is lower in Inhibition %: 24% for the first, 14.5% for the second.

First: COCCNC(=O)C(C#N)=Cc1c(Cl)cccc1Cl
Second: CCCNC(=O)C(C#N)=Cc1ccc(O)nc1
The Inhibition % of the first is lower: 2.17% for the first, 11.6% for the second.

Compared with `CC1(C)OB(C=Cc2ccccc2Cl)OC1(C)C`, `Cc1cccc(B2OC(C)(C)C(C)(C)O2)c1Cl` is lower in Inhibition %: 12.9% for the first, 5.32% for the second.

Going from `COc1ccc(C)cc1S(=O)(=O)n1nc(C)cc1C` to `COc1ccc(F)cc1S(=O)(=O)n1nc(C)cc1C`, the Inhibition % rises from -9.96% to 1.8%.

First: C=CC(=O)NC1CCC2CCC1OC2 (stereo not shown)
Second: C=CC(=O)N[C@H]1CCO[C@@H]1c1ccnn1CC1CC1
The Inhibition % of the first is higher: 9.75% for the first, -2.72% for the second.

Compared with `CNC(=O)c1ccc(C=C(C#N)c2ccccn2)cc1`, `Cc1ccc(C=C(C#N)c2ccccn2)o1` is higher in Inhibition %: 19.5% for the first, 23.3% for the second.

First: C=CC(=O)N1CCN(C)Cc2cccnc21
Second: C=CC(=O)N1Cc2ccccc2C(C)(C)C1
The Inhibition % of the first is higher: 20.2% for the first, 9.47% for the second.

Compared with `C=CC(=O)N1CC(C)(C)O[C@@H]2COC[C@H]21` (racemic), `C=CC(=O)N1CC(C2CCOCC2)C1` is lower in Inhibition %: 4.11% for the first, -1.92% for the second.

Going from `C=CC(=O)N1CCC(C(=O)NC)C1` (stereo not shown) to `C=CC(=O)N1CCCC(n2cc(C)cn2)C1` (stereo not shown), the Inhibition % rises from 2.58% to 10.7%.

First: CC1CCC(O)(Cn2cnc(C#N)n2)CC1 (stereo not shown)
Second: N#Cc1nccc(N)n1
The Inhibition % of the first is lower: 5.82% for the first, 29.7% for the second.

First: Cc1cc(C#N)nn1C
Second: CCC1C(=O)NCCN1Cc1cccc(C#N)n1 (stereo not shown)
The Inhibition % of the first is lower: 5.45% for the first, 35.8% for the second.

First: O=C1CC(C2CC2)=NO1
Second: C=CC(=O)N1CCCC(c2nc(C)no2)C1 (stereo not shown)
The Inhibition % of the first is higher: 11.4% for the first, 6.59% for the second.

Going from `C=CC(=O)NC1C(C)OC(C)C1C` (stereo not shown) to `C=CC(=O)N[C@H]1C[C@H]1C(F)F` (racemic), the Inhibition % falls from 6.51% to 1.96%.

Compared with `O=C(CCCl)Nc1ccc(N2CCOCC2)cc1`, `Cc1c(NC(=O)CCCl)c(=O)n(-c2ccccc2)n1C` is higher in Inhibition %: 2.86% for the first, 3.62% for the second.

First: O=C(C=Cc1csc(-c2ccc(F)cc2)n1)N1CCC1
Second: C=CC(=O)N1CCCC(c2ccccc2)CC1 (stereo not shown)
The Inhibition % of the first is higher: 13.5% for the first, 4.3% for the second.

Going from `N#Cc1nccn1CC(=O)c1ccccc1F` to `N#CN(CC(=O)N1CCNC1=O)c1ccccc1`, the Inhibition % rises from 0.898% to 3.42%.

First: C=CC(=O)NCCn1nc2ccccn2c1=O
Second: C=CC(=O)NCCCn1ccnc1
The Inhibition % of the first is higher: 7.98% for the first, -0.252% for the second.

Going from `O=C(CC1SC(=O)NC1=O)Nc1ccccc1` (stereo not shown) to `NC(=O)C1CCN(C(=O)Oc2ccccc2)CC1`, the Inhibition % falls from 82.7% to 0.775%.

Going from `Cc1cc(NS(=O)(=O)C2=CCCCC2)c[nH]c1=O` to `O=C(CCl)Nc1ccc2c(c1)CCC2`, the Inhibition % rises from 48.5% to 57.8%.

First: C=CC(=O)N(Cc1ccco1)c1nccs1
Second: N#CC(=Cc1ccco1)C(N)=O
The Inhibition % of the first is higher: 6.14% for the first, 2.61% for the second.

First: C=CC(=O)N1CCC(C2CCCO2)CC1 (stereo not shown)
Second: O=C(NC1CCSC1)N1CCC(C2OCCO2)CC1 (stereo not shown)
The Inhibition % of the first is lower: 5.38% for the first, 8.19% for the second.

Going from `Cc1ccc(C2CN(C(=O)c3cccnc3S)CCO2)o1` (stereo not shown) to `Cc1cc(NC(=O)c2cccnc2S)ccc1O`, the Inhibition % falls from 8.62% to 7.89%.

Going from `CC(=O)NCCc1ccc(C(=O)CCl)s1` to `O=C(O)c1csc(C(=O)CCl)c1`, the Inhibition % rises from 90.4% to 102%.

Going from `N#CC(=Cc1cccnc1)c1nc(-c2ccncc2)cs1` to `C=CCOc1ccc(Oc2nccnc2C#N)cc1`, the Inhibition % falls from 6.31% to 6.2%.

Going from `CC1(C)OB(c2ccc(-n3cccn3)cc2)OC1(C)C` to `CC1(C)OB(c2ccc(OCCCN3CCCC3)cc2)OC1(C)C.Cl`, the Inhibition % falls from 5.51% to 4.22%.

First: COc1cc(C)c(S(=O)(=O)n2ccnc2)cc1C(C)C
Second: CCCOc1cc(S(=O)(=O)n2ccc(C)n2)ccc1Cl
The Inhibition % of the first is higher: 2.99% for the first, 2.03% for the second.

Compared with `O=C1NCCN1CCCl`, `C=CC(=O)N1CCN(Cc2nccn2C)CC1` is higher in Inhibition %: 4.06% for the first, 4.84% for the second.

First: CN1CCOC(CS)C1 (stereo not shown)
Second: C=CC(=O)NCC1CCC(C)(C)CO1 (stereo not shown)
The Inhibition % of the first is lower: 0.301% for the first, 28.6% for the second.

First: CCc1cc(SC#N)ccc1N
Second: CSc1ccc(C=C(C#N)S(N)(=O)=O)cc1
The Inhibition % of the first is lower: -1.87% for the first, 8.82% for the second.

Going from `C=CC(=O)N1CCCC(N(C)Cc2noc(C)n2)CC1` (stereo not shown) to `C=CC(=O)N1CCN(Cc2ccc(Cl)cn2)CC1`, the Inhibition % rises from 1.13% to 19.7%.

First: c1ccc(N2CCN(CC3OCCO3)CC2)cc1
Second: N#CN(CC(=O)N1CCCCCC1)c1ccccc1
The Inhibition % of the first is lower: 5.86% for the first, 7.03% for the second.

Compared with `C=CC(=O)NC(C)C1=CCN(C)CC1` (stereo not shown), `C=CC(=O)NC1CCN(c2nnnn2C)CC1` is lower in Inhibition %: 13% for the first, 11% for the second.

Going from `CC(C)c1nn(C)cc1B1OC(C)(C)C(C)(C)O1` to `CC(C)(C)n1cc(B2OC(C)(C)C(C)(C)O2)cn1`, the Inhibition % rises from 2.59% to 7.39%.

Going from `CN(C)C(=O)c1ccc(CN2C(=O)CCC2=O)cc1` to `O=C(CCN1C(=O)CCC1=O)Nc1ccc(F)cc1F`, the Inhibition % falls from 2.25% to 0.402%.

First: C=CC(=O)NC1c2ccccc2CCC1n1ccnc1 (stereo not shown)
Second: C=CC(=O)NC1CCCN(c2ccccc2Cl)C1 (stereo not shown)
The Inhibition % of the first is higher: 10.6% for the first, 8.31% for the second.

Compared with `c1ccc(C23CCOCC2O3)cc1` (stereo not shown), `FC(F)(F)c1cccc(C2CO2)c1` (stereo not shown) is higher in Inhibition %: -0.0704% for the first, 2.09% for the second.

Going from `COC(=O)c1cc(B2OC(C)(C)C(C)(C)O2)ccc1C` to `CC1(C)OB(c2cc(CN3CCCC3)ccc2F)OC1(C)C`, the Inhibition % falls from 5.14% to 3.85%.

First: C=CC(=O)Nc1ccc2nc(C)nn2c1
Second: C=CC(=O)NCCN(C)S(=O)(=O)c1cccs1
The Inhibition % of the first is higher: 12.2% for the first, 7.66% for the second.

Going from `CCC(=O)N1CCC(NC(=O)c2cccnc2S)C1` (stereo not shown) to `C=CC(=O)NC1CCN2CCCC2C1` (stereo not shown), the Inhibition % rises from 5.25% to 7.06%.

First: C1CCC(C2OCCO2)NC1 (stereo not shown)
Second: O=C(CCl)N(C1CCCC1)C1CCS(=O)(=O)C1 (stereo not shown)
The Inhibition % of the first is lower: 5.75% for the first, 7.16% for the second.

Going from `CCCn1c(N)c(C(=O)CCl)c(=O)n(C)c1=O` to `COc1ccc2cc(CN(C)C(=O)CCl)ccc2c1`, the Inhibition % falls from 38.9% to 8%.

First: CC(C)N1CCN(c2oc(-c3ccco3)nc2C#N)CC1
Second: Cc1cc2ncn(C(=O)N(C)C)c2cc1C
The Inhibition % of the first is higher: 10% for the first, 0.109% for the second.

Going from `O=C(CCl)NCc1cc(Br)cs1` to `COC(=O)C1(NC(=O)CCl)CCCCC1`, the Inhibition % rises from 4.52% to 32.3%.

Going from `O=S(=O)(F)c1nc2ccccc2s1` to `O=S(=O)(Oc1ccc(F)c(F)c1)c1cncc(F)c1`, the Inhibition % falls from 12.9% to 4.3%.

Compared with `Cn1c(SC2CCOC2=O)nnc1C(F)(F)F` (stereo not shown), `N#CN(C[C@H]1C[C@@H](O)C1)c1ccc(F)cc1` is lower in Inhibition %: 6.64% for the first, 3.41% for the second.

Reference: PMC9574860, “Chemical Toolkit for PARK7: Potent, Selective, and High-Throughput” (Journal of Medicinal Chemistry, 2022)
